# Some of the results follow.
# B1: PhoQ; a variant is named by its letters at X, in order, P23837 (parent)
# chain: MKKLLRLFFPLSLRVRFLLATAAVVLVLSLAYGMVALIGYSVSFDKTTFRLLRGESNLFYTLAKWENNKLHVELPENIDKQSPTMTLIYDENGQLLWAQRDVPWLMKMIQPDWLKSNGFHEIEADVNDTSLLLSGDHSIQQQLQEVREDDDDAEMTHSVAVNVYPATSRMPKLTIVVVDTIPVELKSSYMVWSWFIYVLSANLLLVIPLLWVAAWWSLRPIEALAKEVRELEEHNRELLNPATTRELTSLVRNLNRLLKSERERYDKYRTTLTDLTHSLKTPLXXLQXXLRSLRSEKMSVSDAEPVMLEQISRISQQIGYYLHRASMRGGTLLSRELHPVAPLLDNLTSALNKVYQRKGVNISLDISPEISFVGEQNDFVEVMGNVLDNACKYCLEFVEISARQTDEHLYIVVEDDGPGIPLSKREVIFDRGQRVDTLRPGQGVGLAVAREITEQYEGKIVAGESMLGGARMEVIFGRQHSAPKDE
# Variants of: B1
# Test: enrichment ratio after two sorts for PhoP signalling (ratio (wild type AVST 3.29)); higher = more functional
# Conditions: with PhoP (E. coli)
row,Variant,enrichment ratio
1,RADV,≤ 0.25
2,FEAY,≤ 0.25
3,KHMD,≤ 0.25
4,DSSY,≤ 0.25
5,PGCF,≤ 0.25
6,MQAE,≤ 0.25
7,PKDM,≤ 0.25
8,GWKA,≤ 0.25
9,DNVL,≤ 0.25
10,QAGH,1.79
11,LVGF,≤ 0.25
12,MFDI,≤ 0.25
13,RSLA,≤ 0.25
14,HMEF,≤ 0.25
15,SRWG,≤ 0.25
16,RWPE,≤ 0.25
17,LGQE,≤ 0.25
18,YEDA,≤ 0.25
19,TQCV,10.8
20,WQED,≤ 0.25
21,IGYD,≤ 0.25
22,QINL,≤ 0.25
23,VMQM,≤ 0.25
24,ARYR,≤ 0.25
25,DLLF,≤ 0.25
26,TMND,21.9

row,Variant,enrichment ratio
1,TMKC,≤ 0.25
2,KDNC,≤ 0.25
3,SESL,10.8
4,IKHC,≤ 0.25
5,YQLP,≤ 0.25
6,KEFV,≤ 0.25
7,AKLY,19.7
8,CWCM,≤ 0.25
9,AQQY,≤ 0.25
10,YQWS,≤ 0.25
11,WDAD,≤ 0.25
12,HGEI,≤ 0.25
13,PYEV,≤ 0.25
14,YGPY,≤ 0.25
15,ISSM,0.778
16,FTVL,5.17
17,GLIV,≤ 0.25
18,IGEF,≤ 0.25
19,CFVS,≤ 0.25
20,ELFS,≤ 0.25
21,RAVS,≤ 0.25
22,IMVH,≤ 0.25
23,RVFE,≤ 0.25
24,HFQG,≤ 0.25
25,MPWE,≤ 0.25
26,SYWV,≤ 0.25

row,Variant,enrichment ratio
1,RKED,≤ 0.25
2,PWSG,≤ 0.25
3,VDKT,≤ 0.25
4,DAEL,≤ 0.25
5,LDCE,≤ 0.25
6,KSQC,≤ 0.25
7,NYYA,≤ 0.25
8,SEDV,≤ 0.25
9,LSSD,≤ 0.25
10,QQRL,≤ 0.25
11,NLRE,≤ 0.25
12,SWGY,≤ 0.25
13,ESVK,≤ 0.25
14,IFSS,≤ 0.25
15,HMFD,≤ 0.25
16,HQRS,≤ 0.25
17,CVAH,≤ 0.25
18,YHHN,≤ 0.25
19,FEVT,8.94
20,MEIG,8.35
21,DDKI,≤ 0.25
22,ITWC,≤ 0.25
23,YTEH,≤ 0.25
24,ACGA,≤ 0.25
25,SKQY,≤ 0.25
26,SKCN,3.51

row,Variant,enrichment ratio
1,LDYC,≤ 0.25
2,FIGN,≤ 0.25
3,QNTY,≤ 0.25
4,GNHQ,≤ 0.25
5,QDPP,≤ 0.25
6,DMQG,≤ 0.25
7,DENY,≤ 0.25
8,IYLV,≤ 0.25
9,SGDC,≤ 0.25
10,QYRW,≤ 0.25
11,MPNA,≤ 0.25
12,WNSN,≤ 0.25
13,YEFR,≤ 0.25
14,TSIW,≤ 0.25
15,IHPH,≤ 0.25
16,VSHM,≤ 0.25
17,VWTK,≤ 0.25
18,RVDA,≤ 0.25
19,TFTD,≤ 0.25
20,KNHV,≤ 0.25
21,EEVR,≤ 0.25
22,NYWQ,≤ 0.25
23,RIQR,≤ 0.25
24,NNPI,≤ 0.25
25,YKIH,≤ 0.25
26,LSNI,≤ 0.25

row,Variant,enrichment ratio
1,NFWC,≤ 0.25
2,KFRT,≤ 0.25
3,QLNC,≤ 0.25
4,PYAA,≤ 0.25
5,DVSK,≤ 0.25
6,MDFI,≤ 0.25
7,HMDE,≤ 0.25
8,NNMV,6.27
9,TAMR,2.69
10,NSFL,≤ 0.25
11,TSHA,3
12,YNNN,≤ 0.25
13,YCHH,≤ 0.25
14,QTAV,≤ 0.25
15,GRSK,≤ 0.25
16,TMWV,≤ 0.25
17,KNAP,≤ 0.25
18,WGLK,≤ 0.25
19,ASML,10.2
20,EQFA,≤ 0.25
21,SKWM,≤ 0.25
22,YHKL,≤ 0.25
23,KYTG,≤ 0.25
24,VQPS,≤ 0.25
25,EDCT,≤ 0.25
26,RTKG,≤ 0.25

row,Variant,enrichment ratio
1,PPMY,≤ 0.25
2,QFYN,≤ 0.25
3,AYDF,≤ 0.25
4,DEVR,≤ 0.25
5,VLMC,≤ 0.25
6,ITRE,≤ 0.25
7,SIVT,4.11
8,LTEV,≤ 0.25
9,LSLD,≤ 0.25
10,PYIQ,≤ 0.25
11,LNGF,≤ 0.25
12,NIPH,≤ 0.25
13,QVLN,≤ 0.25
14,TECR,16.3
15,EAGL,≤ 0.25
16,HYYT,≤ 0.25
17,LENW,≤ 0.25
18,RWYR,≤ 0.25
19,QASV,2.44
20,RAEQ,≤ 0.25
21,VITG,≤ 0.25
22,NQEY,≤ 0.25
23,HKMI,≤ 0.25

# Reference: a collection of fitness landscapes (doi:10.1126/science.1257360)
